Measurements from PubChem BioAssay AID1460 (National Center for Advancing Translational Sciences (NCATS), 2008).
In all, about 270,000 compounds went through this assay and about 5,800 (2.1%) were called active. The inconclusive results got no clear call from the source; some entries with a clear call stand among them for comparison. The call rests on the fitted dose curve; in most records, active means well fitted inhibition curve with a large enough effect; inconclusive means small, poorly fitted or top-dose-only effect; inactive means flat fitted curve, though single readings scatter. Potencies of inconclusive entries are doubtful fits and often do not repeat.

Biological target: Microtubule-associated protein tau (Homo sapiens) (UniProt P10636)
Chain of UniProt P10636 (P10636 whole entry, looked up): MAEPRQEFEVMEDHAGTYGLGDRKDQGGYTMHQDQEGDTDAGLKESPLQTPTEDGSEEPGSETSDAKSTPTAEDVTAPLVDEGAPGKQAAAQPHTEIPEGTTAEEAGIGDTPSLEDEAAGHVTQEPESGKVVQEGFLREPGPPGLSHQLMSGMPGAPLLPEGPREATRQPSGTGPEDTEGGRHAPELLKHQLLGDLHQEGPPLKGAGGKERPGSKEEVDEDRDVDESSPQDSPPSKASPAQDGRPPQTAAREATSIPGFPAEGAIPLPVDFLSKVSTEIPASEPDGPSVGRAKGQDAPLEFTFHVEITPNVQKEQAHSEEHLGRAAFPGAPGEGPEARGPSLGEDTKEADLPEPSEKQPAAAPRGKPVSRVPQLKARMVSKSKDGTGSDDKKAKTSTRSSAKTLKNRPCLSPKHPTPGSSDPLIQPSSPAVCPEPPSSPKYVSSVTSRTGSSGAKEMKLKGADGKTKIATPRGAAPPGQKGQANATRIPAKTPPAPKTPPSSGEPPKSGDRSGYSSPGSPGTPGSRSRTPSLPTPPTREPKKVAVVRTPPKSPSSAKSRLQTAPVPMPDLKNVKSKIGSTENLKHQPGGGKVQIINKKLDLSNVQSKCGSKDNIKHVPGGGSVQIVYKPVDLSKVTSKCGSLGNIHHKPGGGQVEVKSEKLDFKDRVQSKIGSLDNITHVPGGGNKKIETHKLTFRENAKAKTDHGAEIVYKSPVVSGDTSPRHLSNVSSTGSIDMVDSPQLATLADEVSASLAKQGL
Assay: qHTS for Inhibitors of Tau Fibril Formation, Thioflavin T Binding; further: nearly all actives have a fitted effect of over 55% in size
Conditions: recombinant tau K18 P301L, heparin-induced fibrillization, ThT fluorescence; series mostly up to 57.4 µM; activity, negative = inhibition: at the top concentration
Procedure, shortened: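 Using a mix of unlabeled (15 uM) and Alexa 594-labeled (0.24 uM) tau K18 P301L, heparin-triggered fibrillization over 6 hr at 37 C was scored by ThT fluorescence.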
On the % scale 0 is the no-effect control and ±100 the full control effect; potency means the concentration at half of the fitted maximal effect; tags describe the fitted curve by direction and shape.

| Structure (SMILES) | Potency | activity, negative = inhibition |
| --- | --- | --- |
| COc1cccc(NC(=O)c2oc3ccccc3c2NC(=O)COc2ccccc2C)c1 | inconclusive: 7.94 µM [inhibitor, single point] | – |
| CCOc1ccc(-c2nonc2NC(=O)c2oc3ccc(Cl)cc3c2C)cc1 | – | inactive: 2.26% |
| Cc1cccc(NC(=O)C(=O)NCC(c2cccnc2)N2CCc3ccccc32)c1C (stereo unspecified) | – | inactive: 5.87% |
| Cn1c(CC(=O)Nc2ccc(Cl)c(Cl)c2)n[nH]c1=S | – | inactive: -5.45% |
| CCOC(=O)Cn1nnc(-c2ccccc2)n1 | – | inactive: 0.551% |
| COc1ccc(C2=CC(c3cc(OC)c(OC)c(OC)c3)NC(=S)N2)cc1 (stereo unspecified) | – | inactive: -15.2% |
| N#C/C(=C\c1cc(Cl)c(OCc2ccc(Cl)cc2)c(Cl)c1)C(N)=O | inconclusive: 8.91 µM [inhibitor, partial curve] | – |
| O=C(O)c1cc(O)c2c(c1)[C@H]([C@H]1c3cc(C(=O)O)cc(O)c3C(=O)c3c(O[C@@H]4OC(CO)C(O)C(O)C4O)cccc31)c1cccc(O[C@@H]3OC(CO)C(O)C(O)C3O)c1C2=O (stereo partly specified) | active: 22.4 µM | – |
| Cc1ccc(C(=O)N/C(=C\c2ccccc2F)c2nc(=S)[nH][nH]2)cc1 | inconclusive: 14.1 µM [inhibitor, partial curve] | – |
| CC(=O)N1CCC(N(CCN2CCOCC2)C(=S)Nc2ccc(C)c(C)c2)CC1 | – | inactive: -9.49% |
| C=CCn1cc(C(=O)OC)c(=O)c2cc(S(=O)(=O)N3CCCCCC3)ccc21 | – | inactive: -11.3% |
| O=C(Cn1cc(S(=O)(=O)c2ccc(F)cc2)c(=O)c2cc3c(cc21)OCO3)Nc1ccccc1 | inconclusive: 35.5 µM [activator, single point] | – |
| CCCCCCCN(C(=O)CCl)c1ccccc1C | – | inactive: -9.32% |
| O=C(CCCCCn1c(=S)[nH]c2ccc(N3CCOCC3)cc2c1=O)NCc1ccc(Cl)cc1 | inconclusive: 1.41 µM [inhibitor, full curve] | – |
| S=C(c1ccccc1)N(c1ccccc1)c1ccccc1 | inconclusive: 35.5 µM [inhibitor, single point] | – |
| Cc1ccc(C(=O)N/C(=C\c2ccc(Cl)cc2)C(=O)NCC2CCCO2)cc1 (stereo unspecified) | – | inactive: 3.29% |
| O=C(C1=C[C@@H](c2coc3ccccc3c2=O)C[C@@H](OCCCCO)O1)N1CCN(Cc2ccccc2)CC1 | inconclusive: 0.316 µM [activator, single point] | – |
| Cc1ccccc1-c1nc2c(c(SCc3cccc(Cl)c3)n1)Cc1c(CO)cnc(C)c1O2 | – | inactive: 0.565% |
| CN(C)CC#CCCCCCCC#CCN(C)C | – | inactive: -9.43% |
| COc1ccccc1N1CCN(C2=Nc3cccc4cccc2c34)CC1 | inconclusive: 15.8 µM [inhibitor, partial curve] | – |
| Cc1cccc(-n2c(O)c(C=Nc3ccccc3-c3n[nH]c(=S)[nH]c3=O)c3ccccc3c2=O)n1 | inconclusive: 15.8 µM [inhibitor, partial curve] | – |
